# According to PubChem BioAssay AID1347073 (National Center for Advancing Translational Sciences (NCATS), 2019):
# About 200 (0.44%) of roughly 45,000 compounds were called active. About 7% were inconclusive and are not listed. Calls come from the whole dose curve; as a rule, active = well fitted activation curve with a large enough effect; inconclusive = small, poorly fitted or top-dose-only effect; inactive = no such curve, though single readings can be large or run the other way. Some of the results follow.
# Experiment: qHTS of TDP-43 Inhibitors: NCGC Sytravon Library Screen; note: 0% is about no effect; nearly all actives have a fitted effect of over 55% in size
# Conditions: yeast TDP-43 toxicity rescue, BacTiter-Glo growth, 24 h; at 46.1 µM (top of the series)
# How it was run: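 TDP-43-expressing yeast, pregrown in raffinose, seeded at OD600 0.02 in galactose medium with compound for 24 hr at 30 deg C. Growth read by BacTiter-Glo luminescence, so rescue of toxicity appears as activation.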
row,Structure (SMILES),growth rescue (activation)
1,CCOc1ccc(N2C(=O)NC(=O)/C(=C/c3cnc(SC)nc3)C2=O)cc1,inactive: 4.17%
2,Cc1cc(C)cc(-n2c(C)cc(/C=C3\C(=O)NC(=O)N(C)C3=O)c2C)c1,inactive: 14.4%
3,CCc1cc2c(s1)N(CC(=O)OC)C(=O)CN=C2c1ccccc1OC,inactive: -0.688%
4,CCC(C)n1c(O)c(C=NCc2cccnc2)c(=O)[nH]c1=S (stereo unspecified),inactive: 5.58%
5,CN1C(=O)N(C)C(=O)C2(Cc3cc(NC(=O)c4ccc(F)cc4)ccc3N3CCCC32)C1=O (stereo unspecified),inactive: -0.491%
6,O=C1C2CCCC1C(N1CCCC1)CC2 (stereo unspecified),inactive: -6.33%
7,Cc1ccc(OCC(=O)N2CCN(Cc3ccc(F)cc3)CC2)cc1,inactive: 9.05%
8,O=c1[nH]c(=O)n(Cc2ccccc2)c(O)c1/C=C1\C=Nc2ccccc21,inactive: -5.21%
9,COc1cccc(-n2c(/C=C\c3ccc(Cl)cc3)nc3ccccc3c2=O)c1,inactive: -8.68%
10,Cc1cccc(NP(C)(=O)c2nc3c(s2)CCCC3)c1 (stereo unspecified),inactive: 7.72%
11,C=C(c1ccccc1)P(=O)(O)O,inactive: -0.129%
12,Oc1cc2c(cc1CN1CCN(c3ccccc3F)CC1)OCO2,inactive: -8.12%
13,C=CCn1c(O)c(C=NCCCn2ccnc2)c(=O)[nH]c1=O,inactive: 0.126%
14,CN1C(=O)C(=Cc2cn(CC#N)c3ccccc23)C(=O)N(C)C1=O,inactive: 2.1%
15,N#Cc1ccc(NC(=O)CCNC(=O)c2ccco2)cc1Cl,inactive: -7.16%
16,CCCNC(=O)N1CCC2(CC1)OCCO2,inactive: -9.85%
17,Cc1ccc(N2C(=O)NC(=O)/C(=C\c3cnc(-c4ccccc4)nc3)C2=O)cc1,inactive: -6.02%
18,CCn1cc(CN2CCCC(C(=O)c3sccc3C)C2)cn1 (stereo unspecified),inactive: -7.5%
19,Cc1ccc[n+](CC(O)Cn2c3ccccc3c3ccccc32)c1 (stereo unspecified),inactive: -13.8%
20,OC(c1ccncc1)(c1ccc(F)cc1)c1ccc(F)cc1,inactive: 11.9%
21,CCCNS(=O)(=O)c1ccc(OCC(=O)N2CCN(Cc3ccc4c(c3)OCO4)CC2)c(C)c1,inactive: -26.5%
22,COc1ccc(OCC#CCN2CCCCCC2)cc1,inactive: -5.45%
23,O=C1NC(=O)N(Cc2ccco2)C(=O)/C1=C\c1cccn1CCOc1ccccc1,inactive: 1.06%

row,Structure (SMILES),growth rescue (activation)
1,C[C@]12CCC3C(C(=O)C[C@H]4C[C@@H](O)CC[C@]34C)C1CCC2=O (stereo partly specified),inactive: -1.87%
2,CCC(=NCc1ccco1)c1c(O)n(-c2ccccc2C)c(=O)[nH]c1=O,inactive: -10.1%
3,CC(C)Oc1cccc(C(=O)C2CCCN(C3CCOCC3)C2)c1 (stereo unspecified),inactive: 2.08%
4,O=C(Cc1ccccc1)N1CCN(C/C=C/c2ccccc2)CC1,inactive: 5.11%
5,C[N+]1(CC(COCc2ccccc2)OC(=O)Cc2ccccc2)CCOCC1 (stereo unspecified),inactive: -10.1%
6,C[C@]12CC[C@H](O)CC1=CCC1C2CC[C@@]2(C)C1C[C@@H]1CC(=O)O[C@@H]12 (stereo partly specified),inactive: 5.61%
7,CCCc1nc2ccccc2c(=O)n1-c1ccc(O)cc1,inactive: -15.1%
8,C=Cn1ccnc1P(O)(=S)c1nc(C)c(CCOC(C)=O)s1 (stereo unspecified),inactive: 11.6%
9,Nc1c2c(nc3sc4c(c13)CCCCC4)CCCC2,inactive: 8.36%
10,C#CC(CC)(CC)NC(=O)Nc1ccc(OCC)cc1,inactive: 4.65%
11,C/C(=N\N1CCCCCC1)c1c(O)n(-c2ccccc2)c(=O)[nH]c1=O,inactive: -16%
12,COc1ccc(Cc2c(O)[nH]c(=O)[nH]c2=O)c(OC)c1,inactive: 10.1%
13,CNC(=S)N1CC2CC(C1)c1cccc(=O)n1C2 (stereo unspecified),inactive: -13.6%
14,O=C1NC(=S)NC(=O)C12C(c1ccccc1)NC(=S)NC2c1ccccc1 (stereo unspecified),inactive: -0.971%
15,c1ccc2c3c(ccc2c1)OCC1CONC31 (stereo unspecified),inactive: 8.63%
16,COc1ccc(-n2nc(C(=O)NCC(=O)N3CCC4(CC3)OCCO4)c3ccccc3c2=O)cc1Cl,inactive: 22.2%
17,O=c1[nH]c(=O)n(C2CCCCC2)c(O)c1/C=C/C=Nc1ccccc1,inactive: 11.1%
18,C[C@]12CCC3C(C1CCC2=O)[C@H](O)C[C@H]1C[C@@H](O)CC[C@]31C (stereo partly specified),inactive: 19.7%
19,O=C1NC(=O)C(CCc2ccncc2)(Cc2ccc([N+](=O)[O-])cc2)C(=O)N1,inactive: 6.68%
20,CC(=O)c1ccc(OC(=O)N(C)c2ccccc2)cc1,inactive: 15.7%
21,O=C(Cc1ccccc1)N1CCN(C2CCCCCC2)CC1,inactive: -5.99%
22,Cc1cc(N2CCCCC2)ccc1C=C1C(=O)N(C)C(=S)N(C)C1=O,inactive: 13.6%
23,COc1ccccc1-n1c(-c2ccc(C)cc2)nc2ccccc2c1=O,inactive: 7.76%
